Results from the supplement of paper PMC4604168 (melanoma cell lines).
Some of the results follow. Single values are uncertain, as repeats are few or missing.

How the values were obtained:
Assay in all cases: cell count relative to DMSO control; melanoma cells; higher = more viable cells
Settings in all cases: library dose: standard library concentration; 72 h
[1] = test system: SkMel28
[2] = test system: SkMel2
[3] = test system: SkMel30
[4] = test system: SkMel5
[5] = test system: UACC257
[6] = test system: UACC62
[7] = test system: WM115
[8] = test system: WM1716
[9] = test system: WM1745
[10] = test system: WM3526
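Also: cells treated in 1,536-well plates, then fixed and DAPI-stained, with nuclei counted from automated high-throughput microscope images.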

| Structure (SMILES) | cell count [1] [%] | cell count [2] [%] | cell count [3] [%] | cell count [4] [%] | cell count [5] [%] | cell count [6] [%] | cell count [7] [%] | cell count [8] [%] | cell count [9] [%] | cell count [10] [%] |
| --- | --- | --- | --- | --- | --- | --- | --- | --- | --- | --- |
| CN(NC(=O)CC(=O)NN(C)C(=S)c1ccccc1)C(=S)c1ccccc1 + Cc1cc([N+](=O)[O-])ccc1NS(=O)(=O)c1cc(Cl)ccc1Cl [FH535] (first compound 0.03 µM, partner dose 5 µM) | 13.8 | 5.33 | 79.2 | 29.2 | 64.8 | 39.7 | 8.74 | 68.6 | 23.7 | 70.7 |
| Cc1ccc(NC(=O)c2cccc(N(C)C)c2)cc1NC(=O)c1ccc(O)cc1 + O=C(O)c1ccc(-c2c[nH]c3ncc(-c4ccccc4)cc23)cc1C1CCCC1 [GSK650394] (first compound 10 µM, partner dose 0.8 µM) | 66.6 | 72 | 74.9 | 61.1 | 79.9 | 59.4 | 91 | 87.7 | 100 | 71.7 |
| CN(NC(=O)CC(=O)NN(C)C(=S)c1ccccc1)C(=S)c1ccccc1 + COc1cc2c(Oc3ccc4[nH]c(C)cc4c3F)ncnc2cc1OCCCN1CCCC1 [cediranib] (first compound 0.03 µM, partner dose 2 µM) | 37.8 | 80.7 | 99 | 43.4 | 108 | 47 | 17.7 | 91.7 | 31 | 81.7 |
| CCc1ccc(CCOc2ccc(CC3SC(=O)NC3=O)cc2)nc1 (configuration not stated) [pioglitazone] + O=C1NC(=O)/C(=C/c2ccc(-c3ccc(F)cc3O)o2)S1 [AS252424] (first compound 10 µM, partner dose 5 µM) | 84 | 85.4 | 100 | 86.4 | 85.4 | 98.5 | 81.6 | 79.6 | 72.3 | 84.6 |
| NC(=O)c1ccc(N(C(N)=O)c2c(F)cccc2F)nc1-c1ccc(F)cc1F + NCC(=O)Nc1ccc(-n2nc(C(F)(F)F)cc2-c2ccc3c(ccc4ccccc43)c2)cc1 [OSU03012] (first compound 2 µM, partner dose 5 µM) | 21.8 | 45.5 | 31.7 | 55.4 | 74.4 | 62.2 | 75.4 | 93.9 | 67.3 | 57.4 |
| COc1cc2c(Oc3ccc4[nH]c(C)cc4c3F)ncnc2cc1OCCCN1CCCC1 [cediranib] + O=S(=O)(c1ccccc1)N(CC(F)(F)F)c1ccc(C(O)(C(F)(F)F)C(F)(F)F)cc1 [T0901317] (first compound 2 µM, partner dose 7 µM) | 79.7 | 84.7 | 91.8 | 70.9 | 80.2 | 66.7 | 101 | 74 | 64.2 | 81.6 |
| COc1cc2c(Oc3ccc4[nH]c(C)cc4c3F)ncnc2cc1OCCCN1CCCC1 [cediranib] + N#Cc1c(O)c2c(-c3ccc(-c4ccccc4O)cc3)csc2[nH]c1=O [A769662] (first compound 2 µM, partner dose 10 µM) | 107 | 88.1 | 84.7 | 68.3 | 97.3 | 119 | 96.6 | 87.2 | 83.5 | 87.9 |
| CCCCCCCCc1ccc(CCC(N)(CO)CO)cc1 [fingolimod] + Cn1cncc1[C@@](N)(c1ccc(Cl)cc1)c1ccc2c(c1)c(-c1cccc(Cl)c1)cc(=O)n2C [tipifarnib] (first compound 10 µM, partner dose 0.05 µM) | 2.79 | 0.502 | 10.2 | 42.3 | 62.3 | 15.4 | 12.1 | 9.55 | 6 | 19.1 |
| CCCCCCCCc1ccc(CCC(N)(CO)CO)cc1 [fingolimod] + N#Cc1c(O)c2c(-c3ccc(-c4ccccc4O)cc3)csc2[nH]c1=O [A769662] (first compound 10 µM, partner dose 10 µM) | 0.261 | 0.276 | 12.8 | 50.8 | 80.7 | 19 | 9.19 | 19.1 |  | 33.9 |
| CCCCCCCCc1ccc(CCC(N)(CO)CO)cc1 [fingolimod] + Cn1nnc2c(C(N)=O)ncn2c1=O [temozolomide] (first compound 10 µM, partner dose 10 µM) | 8.66 | 55 | 34.6 | 77.9 | 77.9 | 41.4 | 35 | 43.7 | 12.1 | 67.4 |
| CCCCCCCCc1ccc(CCC(N)(CO)CO)cc1 [fingolimod] + Oc1nc(-c2ccc(C(F)(F)F)cc2)nc2c1CSCC2 [XAV939] (first compound 10 µM, partner dose 10 µM) | 33.5 | 78.5 | 104 | 62.4 | 81.1 | 41.9 | 67.2 | 37.2 |  | 81.5 |
| CCCCCCCCc1ccc(CCC(N)(CO)CO)cc1 [fingolimod] + O=S(=O)(c1ccccc1)N(CC(F)(F)F)c1ccc(C(O)(C(F)(F)F)C(F)(F)F)cc1 [T0901317] (first compound 10 µM, partner dose 7 µM) | 0.855 | 0.0936 | 5.01 | 43.8 | 57.5 | 21.6 | 18.7 | 46.7 |  | 42.7 |
